Results taken from PubChem BioAssay AID720708 (National Center for Advancing Translational Sciences (NCATS), 2013).
Screen size: about 360,000 compounds; about 660 (0.18%) were called active. The inconclusive results got no clear call from the source; some entries with a clear call stand among them for comparison. Calls follow the shape of the dose curve; as a rule, active = well fitted inhibition curve with a large enough effect; inconclusive = small, poorly fitted or top-dose-only effect; inactive = no such curve, though single readings can be large or run the other way. No potency is given beside an inconclusive call; the fits are too rough.

target: Rap guanine nucleotide exchange factor 4 (Homo sapiens) (UniProt Q8WZA2); experiment: qHTS for Antagonist of cAMP-regulated guanine nucleotide exchange factor 2 (EPAC2): primary screen; details: EPAC2 GEF exchange of Rap1B-BODIPY-GDP, fluorescence; series mostly up to 114 µM; also: nearly all actives have a fitted effect of over 45% in size
Chain of UniProt Q8WZA2 (Q8WZA2 whole entry, looked up): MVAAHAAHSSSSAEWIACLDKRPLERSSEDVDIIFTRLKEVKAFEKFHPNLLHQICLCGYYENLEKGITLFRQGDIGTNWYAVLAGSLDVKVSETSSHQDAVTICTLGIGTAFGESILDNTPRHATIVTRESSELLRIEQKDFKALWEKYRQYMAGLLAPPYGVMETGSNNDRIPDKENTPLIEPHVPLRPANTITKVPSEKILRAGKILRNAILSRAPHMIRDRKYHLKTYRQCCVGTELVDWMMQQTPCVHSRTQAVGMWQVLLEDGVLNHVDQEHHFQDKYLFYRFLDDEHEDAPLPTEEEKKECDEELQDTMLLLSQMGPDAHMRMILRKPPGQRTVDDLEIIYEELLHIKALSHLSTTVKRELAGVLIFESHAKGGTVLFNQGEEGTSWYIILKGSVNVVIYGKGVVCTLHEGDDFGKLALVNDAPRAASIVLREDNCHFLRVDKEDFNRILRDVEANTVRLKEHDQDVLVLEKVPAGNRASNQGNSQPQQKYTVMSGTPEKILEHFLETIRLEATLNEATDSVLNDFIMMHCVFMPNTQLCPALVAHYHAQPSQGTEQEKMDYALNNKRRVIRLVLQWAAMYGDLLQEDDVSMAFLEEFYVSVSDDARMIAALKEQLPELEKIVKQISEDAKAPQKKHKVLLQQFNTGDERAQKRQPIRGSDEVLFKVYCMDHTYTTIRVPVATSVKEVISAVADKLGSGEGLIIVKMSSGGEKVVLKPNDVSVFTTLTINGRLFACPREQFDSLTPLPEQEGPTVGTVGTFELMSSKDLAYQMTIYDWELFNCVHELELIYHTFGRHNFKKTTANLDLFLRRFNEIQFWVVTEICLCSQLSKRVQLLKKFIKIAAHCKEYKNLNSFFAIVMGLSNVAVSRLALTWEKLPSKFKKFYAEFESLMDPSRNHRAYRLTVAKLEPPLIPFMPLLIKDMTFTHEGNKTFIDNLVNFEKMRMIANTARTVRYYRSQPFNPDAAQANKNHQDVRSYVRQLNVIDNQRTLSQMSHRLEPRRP
Potency is read from the fitted curve at half-maximal effect; tags tell the direction and shape of the fitted curve.

Compound	Potency
CC(=O)Nc1cccc(C(=O)/C=C/c2ccc(Br)cc2)c1	inactive
Cc1cccc(Oc2nc(-c3ccncc3)nc3ccccc23)c1	inconclusive [inhibitor, partial curve]
CC(=O)OCC1=C(C(=O)O)N2C(=O)C(NC(=O)COc3ccc(F)cc3)C2SC1 (stereo not drawn)	inactive
COc1ccc(NC(=S)NC(=O)/C=C/c2ccco2)c(OC)c1	inconclusive [inhibitor, partial curve]
CCC(=O)N1N=C(c2cccs2)CC1c1ccc(OC)cc1 (stereo not drawn)	inconclusive [inhibitor, full curve]
Oc1cccc(CN2CCOCC2)c1O	inactive
Cn1c(CN2CCCCC2)nc2cc([N+](=O)[O-])ccc21	inactive
CCCN(CCC)Cc1cc(=O)oc2cc(OC)ccc12	inconclusive [inhibitor, partial curve]
CCCc1cc2c(cc1N(C)S(=O)(=O)c1ccccc1)OCO2	active: 28.2 µM
O=C(Nc1ccccc1Cl)c1cc(C2CCCCN2C(=O)c2ccccc2)on1 (stereo not drawn)	inactive
CCOC(=O)/C=C/c1ccc(C(F)(F)F)cc1S(=O)(=O)NC(C)(C)C	inconclusive [inhibitor, full curve, poor fit]
C[C@@H](c1ccccc1)N1Cc2ccccc2Oc2cc(Br)ccc2S1(=O)=O	inconclusive [inhibitor, full curve]
CO/N=C(/CN1CCCCC1)c1ccc(Cl)cc1	inactive
CCOC(=O)c1ccccc1NC(=O)COC(=O)C(CCSC)NC(=O)COc1ccccc1 (stereo not drawn)	inconclusive [inhibitor, partial curve]
Cc1nn2c(c1-c1ccc(Cl)cc1)N=C(c1ccco1)CC2c1ccccc1 (stereo not drawn)	inactive
O=[N+]([O-])c1cc(C(F)(F)F)ccc1NCCc1ccccn1	inconclusive [inhibitor, partial curve]
Cc1ccc(C(C(=O)NCc2ccco2)N(C(=O)Cc2cccs2)c2cccnc2)cc1 (stereo not drawn)	inactive
CCCCNC(=O)Cn1cnc2sc(C(=O)OCC)c(C)c2c1=O	inactive
Cc1cc(C(F)(F)F)n(-c2nc(C(=O)NNS(=O)(=O)c3ccccc3[N+](=O)[O-])cs2)n1	inconclusive [inhibitor, full curve, poor fit]
Fc1ccc(C2Nc3cccc4cccc(c34)N2)cc1	inconclusive [inhibitor, single point]
CCn1ccnc1CN(C)Cc1cn(-c2ccc(C)cc2)nc1-c1ccc(F)cc1	inconclusive [inhibitor, partial curve]
CC[C@H]1C(c2ccc(F)cc2)=NN(c2ccccc2)[C@@H]1CO	active: 50.1 µM
Cc1ccc(C2CC(=O)Oc3cc(C)c(Br)c(C)c32)cc1 (stereo not drawn)	inconclusive [inhibitor, full curve]
C=CCn1c(SC(F)F)nc2scc(-c3ccco3)c2c1=O	inconclusive [inhibitor, partial curve]

Compound	Potency
COc1ccc(-c2nc3ccccc3nc2-c2ccc(OC)cc2)cc1	inconclusive [inhibitor, partial curve]
O=C(c1ccc(-c2cccc(C(F)(F)F)c2)o1)N1CCCC(C(F)(F)F)C1 (stereo not drawn)	inconclusive [inhibitor, partial curve]
CCOC(=O)c1sc(NC(=O)c2cccc(S(=O)(=O)N(CC)CC)c2)cc1C	inactive
CCN(CC)c1ccc(N=Cc2ccc([N+](=O)[O-])o2)cc1	inactive
CC(C)CC1C(=O)N(Cc2cn(CCC3OCCO3)nn2)CCS(=O)(=O)N1Cc1ccc(-c2ccc(F)nc2)cc1 (stereo not drawn)	inconclusive [inhibitor, full curve]
Cc1ccc2c(CN(C)Cc3cccc(F)c3)cc(=O)oc2c1	inconclusive [inhibitor, full curve]
O=C(O)c1ccc(C2NCC(c3ccccc3Cl)c3c2[nH]c2ccccc32)cc1 (stereo not drawn)	inconclusive [inhibitor, partial curve]
COc1ccccc1Oc1nc(-c2cccnc2)nc2ccccc12	inconclusive [inhibitor, partial curve]
CCCCCCCCCCS(=O)(=O)N/N=C/c1ccc(O)cc1	inconclusive [inhibitor, partial curve]
COc1ccccc1NC(=O)Nc1nc(CC(=O)NCc2ccc(F)cc2)cs1	inactive
CC1OC(Nc2cccc3ccccc23)C(O)C(O)C1O (stereo not drawn)	inactive
Cn1c(N)c(C(=O)COC(=O)/C=C/c2ccc(Cl)c(Cl)c2)c(=O)n(C)c1=O	inactive
O=C1c2ccccc2C(=O)c2c1cccc2N1CCCC1	inactive
Cc1cc(NC(=O)c2ccc(-c3ccccc3[N+](=O)[O-])o2)no1	inactive
Cc1cc(C)cc(OCCCOc2cccc3cccnc23)c1	inconclusive [inhibitor, partial curve]
O=S(=O)(O)c1ccc(N=NNc2ccc(Br)cc2)cc1	active: 44.7 µM
CC(=O)N1CCc2cc(S(=O)(=O)NCCC(=O)Nc3ccc4c(c3)OCCO4)ccc21	inactive
CC1(C(=O)NCc2ccccc2)CN(S(C)(=O)=O)CC(=O)N1CCc1ccccc1F (stereo not drawn)	inactive
Oc1ccc(N=Cc2ccc(O)c(O)c2)cc1	inconclusive [inhibitor, single point]
COc1ccc(OC)c(/C=N\NC(=O)c2cc3c(ccc4ccccc43)o2)c1	inactive
Cc1ccc(S(=O)(=O)N2[C@@H](c3ccc(Cl)cc3)C(C(=O)O)=C[C@H]2C(C)(C)C)cc1	inconclusive [inhibitor, partial curve]
CCC(CC)COC(=O)C1=C(C)NC(=O)NC1c1ccc2c(c1)OCO2 (stereo not drawn)	inconclusive [inhibitor, partial curve]
COC(=O)C1CCN(CC(=O)Nc2ccccc2Sc2ccccc2)CC1	inconclusive [inhibitor, partial curve, poor fit]
CCOc1ccc(-n2c(SCC(=O)Nc3ccc(OC)cc3)nc3sc4c(c3c2=O)CCN(C)C4)cc1	inconclusive [inhibitor, partial curve]
